The structures appear in SMILES notation. Whole data set: some 110,000 compounds, median “z-score” near -0.1, cut for the highest 2% near 2. The list shows a part of the results.

The test deals with Metabotropic glutamate receptor 8 (Rattus norvegicus) (UniProt P70579). In words: mGluR8 Gi/Go-coupled signaling modulation – cell-based, rat, thallium flux, HTS, primary screen (AID 488969). The following applies: HEK293 rat mGluR8, GIRK (G protein-gated inwardly rectifying potassium channel) thallium flux, FluoZin2; at 10 µM; stronger effect = higher value; submaximal glutamate (EC20) added with thallium.
Chain of UniProt P70579 (P70579 whole entry, looked up): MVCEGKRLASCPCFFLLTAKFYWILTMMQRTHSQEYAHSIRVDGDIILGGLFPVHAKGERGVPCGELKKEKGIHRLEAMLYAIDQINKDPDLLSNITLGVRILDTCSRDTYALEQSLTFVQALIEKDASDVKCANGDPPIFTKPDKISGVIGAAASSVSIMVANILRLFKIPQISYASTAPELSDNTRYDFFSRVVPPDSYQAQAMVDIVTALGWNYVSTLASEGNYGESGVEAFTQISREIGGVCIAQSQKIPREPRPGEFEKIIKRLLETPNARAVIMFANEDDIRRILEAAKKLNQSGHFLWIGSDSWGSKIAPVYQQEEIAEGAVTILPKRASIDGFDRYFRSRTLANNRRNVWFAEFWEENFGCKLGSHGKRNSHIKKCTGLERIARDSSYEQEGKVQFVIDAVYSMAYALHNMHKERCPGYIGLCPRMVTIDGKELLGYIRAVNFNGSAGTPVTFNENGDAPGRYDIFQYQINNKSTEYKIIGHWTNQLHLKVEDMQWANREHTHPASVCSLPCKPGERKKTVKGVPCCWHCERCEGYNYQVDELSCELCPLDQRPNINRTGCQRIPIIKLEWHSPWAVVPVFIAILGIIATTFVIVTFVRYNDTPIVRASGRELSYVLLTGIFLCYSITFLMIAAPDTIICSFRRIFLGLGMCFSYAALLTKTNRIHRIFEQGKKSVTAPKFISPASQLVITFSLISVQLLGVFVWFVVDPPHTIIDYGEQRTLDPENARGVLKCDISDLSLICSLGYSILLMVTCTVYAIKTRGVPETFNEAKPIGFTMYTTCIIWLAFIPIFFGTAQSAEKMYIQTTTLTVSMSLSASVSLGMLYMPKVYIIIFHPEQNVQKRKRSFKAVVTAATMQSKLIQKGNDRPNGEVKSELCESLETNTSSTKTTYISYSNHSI
For the molecule `O=C1CSC(c2nn(-c3ccccc3)cc2-c2cc3ccccc3oc2=O)N1Cc1ccco1` (stereo unspecified), the z-score worked out at 0.0314.
In the case of `Cc1ccccc1NC(=O)CSc1nnc(Cc2ccccc2)o1`, the z-score was -0.0343.
With `CNc1c([N+](=O)[O-])ncn1C`, the z-score is -0.802.
`Cc1cc(NC(=O)c2cc([N+](=O)[O-])cc([N+](=O)[O-])c2)n(-c2ccccc2)n1` had a z-score of -0.172.
The molecule `CCNS(=O)(=O)c1ccc(CCC(=O)Nc2cc(Cl)ccc2Oc2ccccc2)cc1` registered a z-score of -0.0841.
In turn, `COc1ccc(C(=O)Nc2ccc3c4c(cccc24)CC3)cc1` returned a z-score of -0.301.
The figure for `O=C(O)C1C2C=CC(C2)C1C(=O)Nc1cccc(F)c1` (stereo unspecified) is 0.376.
To `CS(=O)c1ccccc1COC(=O)Nc1ccc(Cl)cc1` (stereo unspecified) belongs -0.0279.
To `CCOC(=O)N1CCC(N2Cc3cccc(C(=O)Nc4ccc(CC)cc4)c3C2=O)CC1` belongs -0.393; to `CCOC(=O)C1CCN(C(=O)CCS(=O)(=O)c2ccc3c(c2)CCN3C(C)=O)CC1`, 0.0537.
In turn, `Cc1ccccc1C(=O)N1CCN(c2ncnc3c2cnn3-c2ccccc2)CC1` showed a z-score of -0.224.
The molecule `FC(F)(F)c1cccc(NC(=S)Nc2cccc(Cl)c2)c1` returned a z-score of 1.03.
On to `CCN1C(=O)C(CC(=O)Nc2c(C)cccc2C)SC1=Nc1ccc(S(N)(=O)=O)cc1` (stereo unspecified), for which the z-score is -0.0684.
Regarding `C=CCc1cc(C)cc(C)c1OCCn1cncn1`, the z-score turned out to be 0.241.
In turn, `O=C(COCC(=O)Nc1cccc(C(F)(F)F)c1)Nc1cccc(C(F)(F)F)c1` displayed a z-score of 0.00891.
`COc1ccc2oc(C)c(C(=O)NN)c2c1` yielded a z-score of -0.136.
Turning to `Cc1cc2ccccc2n1CCNC(=O)C1CCCC1`, the z-score is 0.191.
`CC(C)(C)C(=O)c1cnc(Nc2ccccc2Cl)s1` returned a z-score of 1.04.
In turn, `Cc1cccc(CSCCNC(=O)COc2ccc(Cl)cc2)c1` returned a z-score of -0.0336.
Turning to `CCCNS(=O)(=O)c1ccc(CCC(=O)Nc2ccc3c(c2)OCO3)cc1`, the z-score was -0.159.
To `CCN(CC)C(=O)N1CCn2c(nc3ccccc32)C1` belongs -0.233; to `COc1ccc(C(C)=O)cc1CSc1nnc(C)s1`, -0.119; to `Cc1nc(N/N=C/c2ccccn2)sc1C`, -0.0771.
To `CCCCCCCCCCCC(=O)NC(C(=O)OCC)C(O)c1cccc([N+](=O)[O-])c1` (stereo unspecified) belongs 0.0134.
On to `CC(=O)c1c(O)cc(=O)n(-c2ccccc2)c1-c1ccc(C)cc1`, for which the z-score was -0.046.
In turn, `O=C1CCSc2ccc(Cl)cc2N1Cc1ccc(Cl)cc1` registered a z-score of -0.366.
`Cc1cc(C(=O)CSc2nc3ccccc3[nH]2)c(C)n1Cc1ccco1` displayed a z-score of -0.207.
The molecule `CCCCN1C(=O)C2C3C=CC(C2C1=O)C1C2C(=O)N(CCCC)C(=O)C2C31` (stereo unspecified) had a z-score of -0.244.
`Nc1c(C(=O)NC23CC4CC(CC(C4)C2)C3)sc2nc3c(c(C(F)(F)F)c12)CCC3` showed a z-score of -0.168.
`OCCN1CCN(c2cc(-c3ccccc3)c3ccccc3n2)CC1` registered a z-score of -0.0988.
To `COc1ccc(CC(=O)OCc2cc3ccc(C)cc3[nH]c2=O)cc1` belongs -0.459; to `OC1C[N+]2(CCCCC2)C1`, -0.025.
As to `O=C(O)c1ccc(N(c2ccccc2)c2ccccc2)cc1`, the z-score came to 0.0379.
The figure for `COc1ccc(-c2cc(C(=O)Nc3cnn(Cc4ccccc4C)c3)no2)cc1OC` is -0.425.
`N#Cc1c(-c2ccco2)cc(-c2ccc(F)cc2)nc1N` showed a z-score of 0.827.
Molecule `COc1cccc(C(=O)O/N=C(\N)c2ccc([N+](=O)[O-])cc2)c1` gave a z-score of 0.0273.
With `COc1cc(S(=O)(=O)N2CCN(C)CC2)c(OC)cc1Br`, the z-score was 0.054.
Molecule `O=C(COC(=O)/C=C/c1ccc(S(=O)(=O)N2CCCCCC2)cc1)NCc1ccccc1Cl` yielded a z-score of -0.0875.
`CC1CCN(c2oc(Cc3cccc4ccccc34)nc2C#N)CC1` returned a z-score of -0.0445.
`O=C1OCCC1Sc1nnc(-c2ccc(F)cc2)n1Cc1ccccc1` (stereo unspecified) had a z-score of -0.224.
As for `N#Cc1nc(-c2ccccc2Cl)oc1NCc1ccco1`, the z-score is -0.953.
`O=C(c1ccc(=O)[nH]c1)N(Cc1ccco1)C1(C(=O)NC2CCCC2)CCCCC1`: the z-score was -0.226.
The molecule `CCN(CC(=O)NCCc1ccccc1)S(=O)(=O)c1ccc(Br)cc1` returned a z-score of -0.166.
To `Cc1ccc(S(=O)(=O)CCC(=O)NCc2ccccc2)cc1` belongs -0.064.
In the case of `CCOC(=O)CSc1nnc(CNC(=O)c2cccs2)n1-c1cc(OC)ccc1OC`, the z-score is -0.34.
For `O=S1(=O)CC(O)C(Nc2ccc(Cl)cc2)C1` (stereo unspecified), the z-score came out at 0.00894.
In turn, `O=C1CN(C(=O)CCCc2c[nH]c3ccccc23)c2ccccc2N1` showed a z-score of -0.0819.
The figure for `Cc1ccc(NC2CC(=O)N(CCc3ccccc3)C2=O)cc1` (stereo unspecified) is -1.86; for `CCSCc1nnc(SCC(=O)Nc2nc3ccccc3s2)n1C` it is -0.202; for `CCc1cc(C(=O)OC)c(NC(=O)CC2Sc3ccc(C(F)(F)F)cc3NC2=O)s1` (stereo unspecified) it is -0.0252.
For `CC1=C(/C=N/Nc2ccc([N+](=O)[O-])cc2[N+](=O)[O-])C(C)(C)CCC1`, the z-score was -0.388.
For `O=C(N/N=C/c1ccc[nH]1)c1ccccc1[N+](=O)[O-]`, the z-score was -0.104.
`O=C(CN1CCCCC1)Nc1cccc(Br)c1` came in with a z-score of 0.475.
Take `COc1ccc(C(=O)Nc2ccc(Cl)c(S(=O)(=O)Nc3ccccc3OC)c2)cc1`: the z-score is -0.653.
In turn, `CCN(CC)C(=O)CC(c1ccccc1)c1ccco1` (stereo unspecified) gave a z-score of 0.0642.
`O=C(NC(=S)NCCc1ccccc1)C1CCCCC1` yielded a z-score of 0.986.
To `COc1cc(/C=N/Nc2nc3ccccc3[nH]2)cc(OC)c1O` belongs -0.634; to `O=C(Nc1ccc(-c2nc3ccccc3o2)cc1)c1cc(-n2cnnc2)ccc1Cl`, 1.67; to `CCOC(=O)C1CCN(CCC(=O)Nc2cccc(Cl)c2C)CC1`, 0.732.
With `O=C(OCc1ccc(Cl)c(Cl)c1)c1cnccn1`, the z-score is -0.507.
The figure for `O=C(NCCN1CCOCC1)c1cc2n(n1)C(C(F)(F)F)CC(c1ccc(F)cc1)N2` (stereo unspecified) is 0.155; for `CCOC(=O)N1CCN(S(=O)(=O)c2ccc(OC)c(Cl)c2)CC1` it is 0.678.
`COc1cc2c(cc1OC)-c1cc(Nc3ccc4c(c3)OCCO4)nc(=O)n1CC2` gave a z-score of -1.37.
As for `CNC(=O)CN1C(=O)CSc2ncccc21`, the z-score worked out at 0.227.
Molecule `COP(=O)(OC)c1nc(-c2ccccc2)oc1N1CCOCC1` returned a z-score of -0.0566.
To `N#C/C(=C\c1c(N2CCOCC2)nc2ccccn2c1=O)S(=O)(=O)c1ccccc1` belongs 0.452.
Consider `COc1cccc2[nH]c3c(Cl)ncnc3c12`, for which the z-score worked out at 0.132.
To `COc1cccc(/C=N/NC(=O)c2csc(-n3nc(C)cc3C(F)(F)F)n2)c1` belongs 0.106.
Consider `CCN=C(Nc1ccc2c(c1)OCO2)SC1CC(=O)N(c2ccc(OC)cc2)C1=O` (stereo unspecified), for which the z-score was -0.574.
The figure for `CCOC(=O)c1c(NC(=O)c2ccccc2C)sc2c1CC(C)(C)OC2` is -0.332.
`CCOC(=O)c1c(C)[nH]c(C)c1C(=O)CSc1nc2ccccc2c(=O)n1-c1ccc(Cl)cc1` registered a z-score of 0.08.
